Assay results published in the supplement of paper PMC4723716.
± gives the uncertainty stated by the source. Over roughly 9,900 compounds, “viability index relative to DMSO control” has its median near 1; the lowest 2% begin near 0.85. Some of the results follow.

Tested on: Plasmodium falciparum NF54 stage V gametocytes
Experiment: viability index relative to DMSO control (fraction); higher = less gametocyte killing
Conditions: 2.5 µM, incubation time: 72 h
Method in brief: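 Compound at 2.5 µM was incubated for 72 hr at 37°C under low oxygen with P. falciparum NF54 stage V gametocytes (0.75% gametocytemia, 1.25% hematocrit, 10 µl, serum-free screening medium) in 1,536-well plates. Staining used 3 µl of 2.5 µM MitoTracker Red CMXRos plus 0.13% saponin for one to two hours, and red particles of 20–70 µm2 were counted in one imaged field per well. Each viability index is that count relative to the plate mean of solvent-only wells.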

[1] = library set: Broad Institute DOS

Row | SMILES | viability index [1] | viability index (library set: Broad Institute Blood Stage)
1 | COc1ccc(CN2C[C@@H](O)COC[C@H]3O[C@@H](CC(=O)N(C)C)CC[C@@H]32)cc1 | 1.068 ± 0.01 | –
2 | O=C1CNC[C@@H]2[C@@H](c3ccc(C#CC4CCCCC4)cc3)[C@H](CO)N12 | 1.055 ± 0.0017 | –
3 | C[C@@H]1CN([C@H](C)CO)C(=O)c2c(c3ccccc3n2C)-c2ccccc2CO[C@@H]1CN(C)C(=O)Nc1ccc2c(c1)OCO2 | 0.979 ± 0.045 | –
4 | C[C@@H]1CN([C@H](C)CO)C(=O)c2cc(NC(=O)NC3CCCCC3)ccc2O[C@@H]1CN(C)S(C)(=O)=O | 1.036 ± 0.0089 | –
5 | CC(=O)N1[C@@H]2c3ccc(-c4cncnc4)c(=O)n3C[C@@H]2[C@@H](CO)[C@@H]1C(=O)NCc1ccccc1Cl | 0.984 ± 0.016 | –
6 | COc1ccccc1C(=O)N1C[C@H]2[C@@H](c3ccccc31)[C@H](CO)N2C(=O)Cc1ccccc1 | 1.04 ± 0.12 | –
7 | N#C[C@H]1[C@H](c2ccccc2)[C@H](CO)N1C(=O)c1ccccc1F | 1.04 ± 0.034 | –
8 | COc1ccc(NC(=O)N2CC[C@@]3(CC2)CN([C@H](CO)c2[nH]c4cc(OC)ccc4c32)C(=O)CN2CCOCC2)cc1 | 0.973 ± 0.068 | –
9 | COCC(=O)N1CC[C@@]2(CC1)CN([C@@H](CO)c1c2c2ccc(OC)cc2n1C)C(=O)c1ccccn1 | 1.02 ± 0.1 | –
10 | CCCNC(=O)N1C[C@]2(CN(C2)C(=O)c2cnccn2)c2c([nH]c3cc(OC)ccc23)[C@@H]1CO | 0.9806 ± 0.0024 | –
11 | CN1C(=O)c2cc(NC(=O)Nc3ccccc3Cl)ccc2OC[C@H]2O[C@@H](CC(=O)O)CC[C@@H]21 | 0.897 ± 0.14 | –
12 | N#C[C@@H]1N[C@H](CO)[C@@H]1c1ccc(-c2cccc(F)c2)cc1 | 1.05 ± 0.086 | –
13 | COC(=O)c1ccc(CN2CC(=O)N3[C@@H](CO)[C@@H](c4ccc(-c5cccnc5)cc4)[C@@H]3C2)cc1 | 1.04 ± 0.024 | –
14 | CC(C)(C)[S@@](=O)N1Cc2cc(C(=O)NC3CCC3)nc(-c3cccc(-c4ccccc4F)c3)c2[C@H]1CCO | 1.02 ± 0.012 | –
15 | CCCC(=O)N1C[C@]2(CCN(CC2)S(=O)(=O)CC)c2c([C@@H]1CO)n(C)c1cc(OC)ccc21 | 1.04 ± 0.029 | –
16 | C[C@H]1CN([C@@H](C)CO)C(=O)c2cc(NS(=O)(=O)c3cn(C)cn3)ccc2O[C@@H]1CN(C)S(=O)(=O)c1ccc(F)cc1 | 0.974 ± 0.018 | –
17 | COc1ccc2c3c([nH]c2c1)[C@@H](CO)N(C[C@]31CCN(CC1)C(=O)Nc1ccc2OCOc2c1)C(=O)Nc1ccc(F)cc1 | 0.998 ± 0.019 | –
18 | C[C@H]1CN([C@@H](C)CO)C(=O)CCCn2nncc2CO[C@@H]1CN(C)C(=O)c1ccc2ccn(C)c2c1 | 1.09 ± 0.11 | –
19 | CS(=O)(=O)N1C[C@@H](O)COC[C@@H]2O[C@H](CC(=O)NCc3ccccc3)CC[C@H]21 | 0.994 ± 0.022 | –
20 | COC(=O)C[C@@H]1C[C@@H]2c3cc(NC(=O)C4CCOCC4)ccc3O[C@@H]2[C@@H](CO)O1 | 1.099 ± 0.0062 | –
21 | CNC[C@H]1Oc2ccc(N)cc2CC(=O)N([C@@H](C)CO)C[C@H]1C | 0.9709 ± 0.0063 | –
22 | COc1ccc2c3c([nH]c2c1)[C@@H](CO)NC[C@]31CN(C1)S(=O)(=O)c1cccc(C)c1 | 1.08 ± 0.021 | –
23 | CN1C(=O)c2cc(NC(=O)NCc3ccccc3)ccc2OC[C@@H]2O[C@H](CC(=O)NCC3CCCCC3)CC[C@H]21 | 1.05 ± 0.02 | –
24 | COCC(=O)N1[C@@H]2CNc3ccccc3[C@@H]2[C@@H]1CO | 1.02 ± 0.11 | –

Row | SMILES | viability index [1] | viability index (library set: Broad Institute Blood Stage)
25 | Cc1cccc(S(=O)(=O)N2C[C@@H]3[C@H](c4ccccc42)[C@@H](CO)N3C(=O)c2ccccc2)c1 | 1.03 ± 0.12 | –
26 | CNC[C@H]1OCCCC[C@@H](C)Oc2ccc(NC(=O)Nc3ccc(OC)cc3)cc2C(=O)N([C@@H](C)CO)C[C@@H]1C | 0.965 ± 0.12 | –
27 | CCC(=O)Nc1ccc2c(c1)C(=O)N(C)C[C@@H](OC)[C@H](C)CN(C(=O)NC1CCCCC1)[C@H](C)CO2 | 1.02 ± 0.049 | –
28 | CNC[C@H]1Oc2ccc(NS(=O)(=O)c3ccc(OC)cc3)cc2C(=O)N([C@@H](C)CO)C[C@H]1C | 1.03 ± 0.085 | –
29 | O=C(C[C@H]1CC[C@@H]2[C@H](COC[C@@H](O)CN2CC2CCOCC2)O1)NCc1ccc(Cl)cc1 | 1.07 ± 0.052 | –
30 | O=C1CNC[C@H]2[C@H](c3ccc(-c4ccccc4F)cc3)[C@@H](CO)N12 | 1.04 ± 0.068 | –
31 | CO[C@@H]1CC[C@H]2CCOc3c(C#N)cccc3C(=O)N(C)C[C@@H](OC)[C@@H](C)C(=O)N(C)C[C@H]1O2 | 1.09 ± 0.043 | –
32 | C[C@H](CO)N1C[C@H](C)[C@H](CN(C)Cc2ccc(C(=O)Nc3ccccc3N)cc2)OCc2cnnn2CCCC1=O | 0.953 ± 0.042 | –
33 | OC[C@@H]1[C@H](c2ccccc2)C2(CN(Cc3nccs3)C2)N1CC1CCOCC1 | 1.074 ± 0.0018 | –
34 | C[C@@H]1CCCCO[C@@H](CN(C)CC2CCCCC2)[C@@H](C)CN([C@H](C)CO)C(=O)c2cc(NS(C)(=O)=O)ccc2O1 | 1.17 ± 0.11 | –
35 | O=C(Nc1ccc(F)cc1)N1C[C@@H]2[C@H](c3ccccc31)[C@H](CO)N2Cc1ccccc1Cl | 1.01 ± 0.02 | –
36 | C[C@@H]1CCCCO[C@@H](CN(C)C(=O)C2CCCCC2)[C@H](C)CN([C@H](C)CO)C(=O)c2cc(NS(=O)(=O)c3ccccc3)ccc2O1 | 1.02 ± 0.071 | –
37 | C[C@H](CO)N1C[C@H](C)[C@@H](CN(C)Cc2ccc3c(c2)OCO3)OCCCC[C@H](C)Oc2ccc(NS(=O)(=O)c3cn(C)cn3)cc2C1=O | 1.09 ± 0.039 | –
38 | C[C@@H]1CN([C@H](C)CO)C(=O)c2cc(NC(=O)Nc3cccc4ccccc34)ccc2O[C@@H](C)CCCCO[C@H]1CN(C)Cc1ccc(C(F)(F)F)cc1 | 1.07 ± 0.059 | –
39 | C/C=C/c1ccc([C@@H]2[C@H](CO)N(C(=O)c3ccccn3)C23CN(CCC(F)(F)F)C3)cc1 | 0.998 ± 0.032 | –
40 | N#C[C@@H]1[C@@H](c2ccccc2)[C@@H](CO)N1C(=O)c1cc(Cl)cc(Cl)c1 | 1.1 ± 0.042 | –
41 | COc1ccc(CN2[C@@H](CO)[C@@H]3c4ccccc4N(C(=O)NC(C)C)C[C@@H]32)cc1 | 1.13 ± 0.11 | –
42 | O=C(Nc1ccc2c(c1)[C@H]1C[C@H](CC(=O)N3CCOCC3)O[C@@H](CO)[C@H]1O2)Nc1ccccc1F | 1.1 ± 0.013 | –
43 | CCCN1C[C@@H](C)[C@@H](OC)CN(C)C(=O)c2cc(NC(=O)C3CCC3)ccc2OC[C@H]1C | 1.05 ± 0.06 | –
44 | O=C(c1ccccc1)N1CC(=O)N2[C@@H](CO)[C@H](c3ccc(-c4ccccc4)cc3)[C@@H]2C1 | 1.02 ± 0.037 | –
45 | Cc1noc(C)c1NC(=O)N(C)C[C@@H]1OCc2cn(nn2)CCCC(=O)N([C@@H](C)CO)C[C@H]1C | 1.01 ± 0.047 | –
46 | Cc1ccccc1S(=O)(=O)N1CCCCN2[C@H](C1)[C@H](c1ccc(C#CCN(C)C)cc1)[C@@H]2CO | 1.078 ± 0.0075 | –
47 | O=C(CC1CC1)N1CC2(C1)[C@@H](c1ccccc1)[C@@H](CO)N2C(=O)c1ccccn1 | 1.11 ± 0.03 | –
48 | COc1cccc(CNC(=O)C[C@@H]2CC[C@H]3[C@@H](COc4ccc(NC(=O)c5cccs5)cc4C(=O)N3C)O2)c1 | 1.075 ± 0.0063 | –

Row | SMILES | viability index [1] | viability index (library set: Broad Institute Blood Stage)
49 | C[C@@H]1CN([C@@H](C)CO)C(=O)c2ccccc2-c2ccccc2CO[C@H]1CN(C)C(=O)Nc1cccc(C(F)(F)F)c1 | 0.993 ± 0.038 | –
50 | CO[C@@H](CN(C)Cc1ccc2c(c1)OCO2)[C@H](C)CN(C(=O)Nc1ccc(F)cc1)[C@H](C)CO | 1.04 ± 0.037 | –
51 | O=C(C[C@H]1CC[C@@H]2[C@H](COC[C@H](O)CN2C(=O)c2cnccn2)O1)NCc1ccc(Cl)cc1 | 1.04 ± 0.056 | –
52 | COCC#Cc1ccc([C@@H]2[C@@H](CO)N3CCCCN(Cc4cccnc4)C[C@H]23)cc1 | 0.989 ± 0.055 | –
53 | COc1ccc(S(=O)(=O)N2C[C@H](O)COC[C@H]3O[C@H](CC(=O)N[C@@H]4CCN(Cc5ccccc5)C4)CC[C@@H]32)cc1 | 1.06 ± 0.12 | –
54 | C[C@H]1CN([C@@H](C)CO)C(=O)c2ccccc2-c2ccccc2CO[C@@H]1CN(C)C(=O)NC1CCCCC1 | 0.985 ± 0.073 | –
55 | CO[C@@H](CN(C)S(=O)(=O)c1cn(C)cn1)[C@@H](C)CN(C(=O)Nc1ccc(C(F)(F)F)cc1)[C@@H](C)CO | 1.04 ± 0.094 | –
56 | CCCN1C[C@@H](C)[C@H](OC)CN(C)C(=O)c2cc(NC(=O)Nc3cccc(F)c3)ccc2OC[C@@H]1C | 1.05 ± 0.053 | –
57 | O=C(C[C@H]1CC[C@@H]2[C@H](COC[C@@H](O)CN2Cc2nccs2)O1)N1CCC(Cc2ccccc2)CC1 | 1.05 ± 0.015 | –
58 | CC(C)NC(=O)N(C)C[C@@H]1Oc2ccc(NC(=O)c3ccncc3)cc2C(=O)N([C@@H](C)CO)C[C@@H]1C | 0.997 ± 0.14 | –
59 | C[C@H](CO)N1C[C@H](C)[C@@H](CN(C)S(C)(=O)=O)Oc2cc(-c3ccncc3)ccc2S1(=O)=O | 1.15 ± 0.067 | –
60 | CO[C@H](C(=O)N(C)C[C@@H]1OCc2ccccc2-c2ccccc2C(=O)N([C@@H](C)CO)C[C@@H]1C)c1ccccc1 | 1.03 ± 0.082 | –
61 | CCNC(=O)c1cc2c(c(-c3cccc(Br)c3)n1)[C@H](CCO)NC2 | 0.992 ± 0.12 | –
62 | C[C@@H]1CN([C@H](C)CO)C(=O)CCCn2cc(nn2)CO[C@H]1CN(C)S(=O)(=O)c1cccc(C#N)c1 | 1.06 ± 0.062 | –
63 | CCS(=O)(=O)Nc1ccc2c(c1)C(=O)N(C)[C@@H]1CC[C@@H](CC(=O)NCc3ccccc3F)O[C@@H]1CO2 | 1.14 ± 0.16 | –
64 | C/C=C/c1ccc([C@H]2[C@@H]3CN(Cc4cccc(OC)c4)C[C@H]2N3)cc1 | 0.95 ± 0.064 | –
65 | C/C=C/c1ccc([C@H]2[C@@H](CO)N(CC3CCCCC3)[C@@H]2CNC(C)C)cc1 | – | 0.565 ± 0.068
66 | O=C(C[C@H]1CC[C@H]2[C@@H](COC[C@@H](O)CN2C(=O)c2cnccn2)O1)NCc1ccc(Cl)cc1 | 1.02 ± 0.023 | –
67 | Cc1ccc(S(=O)(=O)N(C)C[C@H]2OCCCC[C@@H](C)Oc3ccc(NC(=O)c4ccncc4)cc3C(=O)N([C@H](C)CO)C[C@@H]2C)cc1 | 1.023 ± 0.0052 | –
68 | C[C@@H]1CCCCO[C@@H](CN(C)C(=O)Nc2ccc3c(c2)OCO3)[C@H](C)CN([C@@H](C)CO)C(=O)c2cc(NS(=O)(=O)c3ccc(F)cc3)ccc2O1 | 1.05 ± 0.031 | –
69 | Cc1noc(C)c1S(=O)(=O)N(C)C[C@@H]1OCc2ccccc2-c2ccccc2C(=O)N([C@H](C)CO)C[C@H]1C | 1.06 ± 0.051 | –
70 | CCCNC(=O)N1[C@@H](C#N)[C@H](c2ccccc2-c2ccccc2F)[C@@H]1CO | 0.959 ± 0.02 | –
